In the supplement of paper PMC11417369:
Some of the results follow.

tested on: PF3D7_0420300 AP2 domain 1 (GST-tagged); experiment: gcPBM binding intensity (ln(normalized median fluorescence intensity)); higher = stronger DNA binding
Procedure, shortened: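 The binding buffer was 1× PBS containing 1% milk, 0.2 mg/ml BSA, 0.5% salmon testes DNA and 0.03% Triton X-100. In it, GST-tagged P. falciparum DNA-binding domains expressed in E. coli were applied for 1 h to an Agilent 4 × 180k array of primer-extended double-stranded 36-bp intergenic genomic probes plus negative controls. Binding intensity, read with Alexa488 anti-GST antibody and a 488 nm scan, is the highest Masliner-normalised natural-log median intensity across replicate spots of either probe orientation.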

Row | Sequence | gcPBM binding intensity (ln)
1 | CCAAGAAACCAAAAAAGTACATACATGGTTATAATT [XGTACX_site4249] | 9.36
2 | ACAATATGTATATATATATATATGCAAATGTATAAA [CACACA_negctrl_site53] | 9.3
3 | ATATTAAATTCAATTTAATGTTTTGTGAATTTTAGA [CACACA_negctrl_site1421] | 8.95
4 | TTAAATGGAAAAATATGTACATATATATATATATTT [XGTACX_site2286] | 9.13
5 | TGAACTCATAGATTTAGTACATATATAAAAAAATTC [XGTACX_site1692] | 9.06
6 | TTTGTTAAAAATATATTATGAATAAAAATATATTTT [CACACA_negctrl_site170] | 8.8
7 | TTAAAACATAAAAAAAGTACATACAAATATATATAA [XGTACX_site789] | 9.51
8 | AATTATATTACGAAATGTACATATAATAATGTATAT [XGTACX_site4410] | 9.25
9 | GCCATTGTACCATCCACACACATATATATATGTATA [CACACA_site2704] | 9.88
10 | TTCAAAACTTAAAATCGTACAAGACAATTATTATAT [XGTACX_site6626] | 9.07
11 | TACAAAATAACTAGCACACATATGTATAAACATATA [CACACA_site5948] | 9.52
12 | TATGTCAATCAAGCAAGTACATATATATATAAATAT [XGTACX_site7554] | 9.09
13 | CTTTTAATATTAAGATGTACTTAGAATTTTTTTTTT [XGTACX_site8338] | 8.98
14 | TTTTTTGTTATTGGCGTGCACATATCCATTTATAGT | 9.33
15 | CATATATATTTATGTACACACATTAATAAAAAAAAA [CACACA_site5741] | 9.46
16 | ATATATATAAATAATTGTACTTAAAAAAAAAAAAGG [XGTACX_site6847] | 9.23
17 | TGTAGAGCGCAAAGTAGTACTACAAATTATGGAGGG [XGTACX_site3022] | 9.44
18 | AACAGCATATCACATTTCTTCAAAAAAAAATAAAAT [CACACA_negctrl_site733] | 9.19
19 | CATCTTAGTTTGAGTTGTACAATATTTATAAAAATA [XGTACX_site693] | 9.06

Row | Sequence | gcPBM binding intensity (ln)
20 | ACAAGTTTAACATTTCGTACTTATTGTGTTTTTTTT [XGTACX_site5487] | 9.54
21 | ATATATATTTAAAGATGTACATAATGAAATGGTTAT [XGTACX_site4706] | 9.5
22 | GCAGTATTTCGGAACACACAAACATAAATATGTATT [CACACA_site2316] | 9.44
23 | ATATATATATATGTATGTACATATTTTTTTTAACAC [XGTACX_site8475] | 9.24
24 | GCACAATTTACACTTAAACACACAAAAAAAAATTAT [CACACA_site8642] | 9.43
25 | AAATTTATTTATTATAGTACACTTAATACTACCCAA [XGTACX_site41] | 9.02
26 | AGCACAGACGGACACACACACACACCCACAGACACA [CACACA_site4358] | 10.2
27 | TATACACGCGGACACACACACACACGCAAAAAAAAA [CACACA_site6377] | 10.1
28 | TAAAAACCAAAGAAAAGTACAAATTTAAATGAGAAA [XGTACX_site7450] | 9.42
29 | ATAAGCCATTTTTGTGGTACATAAAATAGATATATA [XGTACX_site5175] | 9.09
30 | TTTACACCGTAATATGCATGTGTGTATATATTTTTG [TGCATGCA_site186] | 9.45
31 | TTATCTTACATATATCATTAAATCATATAACAAAAA [XGTACX_negctrl_site517] | 8.92
32 | AACCTCATGGACATATGTACACATATACAATTATTT [XGTACX_site6533] | 9.36
33 | GTTATATTTAAAATAGTGCAATAAAAATAATAATAT | 9.3
34 | CCTTTATAATTGGAAACACACATATAAAGTATATAT [CACACA_site3900] | 9.2
35 | CACAAATATACAAATACACACAAATATACGCATATA [CACACA_site2384] | 9.83
36 | TTATGTATTTTAAATGGTTTTATTATAAAGTTTAAT [CACACA_negctrl_site1470] | 9.13
37 | TACATAACTTTAATCACACACAAACAAACACATACA [CACACA_site6235] | 9.77
38 | AAAATACATGGACACACACACACACCGATATATATA [CACACA_site5885] | 10.3

Row | Sequence | gcPBM binding intensity (ln)
39 | ATATAATATATATACAAACACACAATTGTGTCCACA [CACACA_site1748] | 9.61
40 | AAATATACATATATATGTACATATAAATATATTTTA [XGTACX_site5266] | 9.12
41 | TAGTTTTCTTAAAGATGTACTTATTAAAAATAAACT [XGTACX_site1001] | 8.81
42 | AATGATTGATTTTATTGTACGTACTCGGAATATGGT [XGTACX_site4976] | 9.21
43 | TATAGATAAATTATTTGTACTTATAAAATTATTATA [XGTACX_site2870] | 8.97
44 | GAATTTTAAATAAACATATAAACAGAAAAAAAAAAA [TGCATGCA_negctrl_site149] | 9.37
45 | TGGTTATAATTGTACGCATGTAATTACATATTCTCT [TGCATGCA_site599] | 9.39
46 | AATATGCCTCCCCAAAAAAAATATATATATATTTAT [GTGCAC_negctrl_site716] | 9.16
47 | TATATTTAAATATATACACACATTATCATTTTCATA [CACACA_site1708] | 9.58
48 | TTTTTTACTATATCAATTACAAAACAAAAAAAAAAA [GTGCAC_negctrl_site683] | 8.96
49 | TATCATTTGGTCTTTTACTTTTTCTGTTTTTTTTTT [CACACA_negctrl_site976] | 9.69
50 | AAATATGTTTCAAAAAGTACATTTCTATCTTTTTTT [XGTACX_site7178] | 9.22
51 | TGATAAAATATTAAATTATTTCTTTATTTAAAGATT [CACACA_negctrl_site370] | 8.66
52 | TCTTACAAGGAACTAATAAAATTGTAGTTTGTATTT [CACACA_negctrl_site386] | 9.1
53 | TTATTATTTATTTTTTATTATTATTATTTTTTTTTA [XGTACX_negctrl_site76] | 9.21
54 | AAATCTTAATAAAGTTGTACATAATTATGTTTAATA [XGTACX_site3348] | 9.08
55 | AAGTATTTCCTAAAATGTACATATAAATAAGTATAT [XGTACX_site1282] | 9.19
56 | TTAAAATTAAAATACGTACACACCTTATCTTTTTGG [CACACA_site7982] | 9.27
